The campaign covered roughly 220,000 compounds. About 2,300 (1%) were called active. The shares of active, inactive and inconclusive entries below differ from those in the screen. Calls come from the whole dose curve; as a rule, active = well fitted inhibition curve with a large enough effect; inconclusive = small, poorly fitted or top-dose-only effect, or effect the other way; inactive = no such curve, though single readings can be large or run the other way. Potencies of inconclusive entries are left out as doubtful fits.
target: Neuropeptide S receptor (Homo sapiens) (UniProt Q6W5P4); test: qHTS Assay for Antagonists of the Neuropeptide S Receptor: cAMP Signal Transduction; details: CHO-NPSR cells, cAMP TR-FRET, antagonist mode; series mostly up to 38.3 µM; note: nearly all actives have a fitted effect of over 50% in size
Sequence of UniProt Q6W5P4 (Q6W5P4 whole entry, looked up): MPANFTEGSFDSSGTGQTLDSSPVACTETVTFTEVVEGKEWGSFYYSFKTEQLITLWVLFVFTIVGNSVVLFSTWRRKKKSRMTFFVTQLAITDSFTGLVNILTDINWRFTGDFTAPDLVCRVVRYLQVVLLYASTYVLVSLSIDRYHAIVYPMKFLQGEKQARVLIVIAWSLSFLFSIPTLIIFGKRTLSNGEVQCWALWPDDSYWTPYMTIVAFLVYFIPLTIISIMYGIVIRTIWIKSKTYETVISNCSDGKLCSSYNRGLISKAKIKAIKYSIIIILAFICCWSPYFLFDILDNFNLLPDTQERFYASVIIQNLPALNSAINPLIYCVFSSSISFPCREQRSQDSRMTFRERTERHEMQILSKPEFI
Potency is the fitted concentration of half-maximal effect; tags give direction and shape of the fitted curve.

SMILES	Potency
CC(C)(C)C(=O)CC1(O)C(=O)N(Cc2ccccc2)c2ccccc21 (stereo not given)	inconclusive [inhibitor, single point]
Cc1c(Cl)cccc1Nc1nc(N)nc(CN2CCc3ccccc3C2)n1	inconclusive [inhibitor, single point]
CSCCC(NC(=O)c1ccccc1)C(=O)OCC(=O)Nc1ccc(C)c(Cl)c1 (stereo not given)	inconclusive [inhibitor, partial curve]
COC(=O)CN1C(=O)S/C(=C/c2ccc(N3CCCCC3)o2)C1=O	inconclusive [inhibitor, partial curve]
CC1(C)Oc2ccc3ccc(=O)oc3c2/C(=C/NC2CCCCC2)C1=O	inconclusive [inhibitor, single point]
Cc1ccc(C(=O)CC2(O)C(=O)N(Cc3ccccc3Cl)c3ccccc32)o1 (stereo not given)	inactive
C=C(C)COc1ccc(-c2[nH]ncc2Oc2ccccc2OC)c(O)c1	inconclusive [inhibitor, single point]
CC1=CC(=C2C(=O)c3ccccc3C2=O)C=C(C)N1Cc1ccco1	inactive
O=C(NC(=S)Nc1ccccc1N1CCCC1)c1ccc(-c2cccc([N+](=O)[O-])c2)o1	inconclusive [inhibitor, single point]
CCOc1ccc(C(NC(=O)/C=C/c2ccco2)c2ccc(OC)c(OC)c2)cc1 (stereo not given)	inactive
COc1ccc(C(C(=O)NC2CCCC2)N(C(=O)c2ccoc2C)c2cc(C)cc(C)c2)cc1 (stereo not given)	inconclusive [inhibitor, single point]
ClCc1nnc(-c2ccccc2)o1	inactive
CCc1nnc(N2C(=N)SCC2=O)s1	inactive
O=C(CSc1ncnc2c1oc1ccccc12)NC1CCCCC1	inconclusive [inhibitor, partial curve]
Cc1ccc(O)c(C2=Nc3ccccc3N=C(c3ccco3)C2)c1	inconclusive [inhibitor, single point]
Cc1cc(C)n(-c2nc(SCC(=O)N3CCCC3)c3c4c(sc3n2)CCCC4)n1	inconclusive [inhibitor, single point]
O=C(CSc1ccc(Cl)cc1)c1ccco1	inactive
CCCCCCOC(=O)C(C#N)c1nc2ccccc2nc1N1CCCCC1 (stereo not given)	active: 10 µM
CCOC(=O)c1c(NC(NC(=O)C(C)C)C(Cl)(Cl)Cl)sc2c1CCC2 (stereo not given)	inconclusive [inhibitor, single point]
Cc1c(C(=O)NCCSCc2cccc(C(F)(F)F)c2)cnn1-c1ccc(Cl)cc1	inconclusive [activator, single point]
CCOC(=O)c1c(C)nc(C)c(C(=O)OCC)c1-c1ccccc1	inconclusive [inhibitor, single point]
CCOC(=O)NC(=S)c1ccc[nH]1	inactive
Cc1ccc(NNC(=O)c2cc(C(C)(C)C)nn2Cc2ccccc2)cc1	inconclusive [activator, single point]

SMILES	Potency
CC(=O)N1N=C(c2cccc([N+](=O)[O-])c2)OC1c1ccc(Cl)cc1Cl (stereo not given)	inconclusive [inhibitor, partial curve]
Cc1ccc2[nH]c(=O)c3cc(C(=O)N(C)c4ccccc4C)sc3c2c1	inconclusive [inhibitor, single point]
COc1cc(NC2c3ncccc3C(=O)N2Cc2ccco2)cc(OC)c1 (stereo not given)	inconclusive [inhibitor, single point]
Cn1c(NCc2ccco2)nc2c1c(=O)n(Cc1ccc(Br)cc1)c(=O)n2C	inconclusive [inhibitor, single point]
O=C(Nc1ccc(Cl)c(C(F)(F)F)c1)C(=O)N1CCCCC1	inconclusive [inhibitor, single point]
Cc1ccc(NC(=S)NCCC(c2ccccc2)c2ccccc2)c(C)c1	inactive
Cn1cnnc1SCC(=O)OCN1C(=O)c2ccccc2C1=O	inactive
CCOc1ccc(N2C(=O)CC(Sc3nnnn3-c3ccccc3)C2=O)cc1 (stereo not given)	inconclusive [inhibitor, single point]
CCN1C(=O)C=CC1=O	inconclusive [inhibitor, single point]
Cc1ccc2c(CC(=O)N3CCc4ccccc43)coc2c1	inconclusive [inhibitor, partial curve, poor fit]
O=C(CN1C(=O)CSc2ccccc21)N1CCc2ccccc21	inactive
Cc1nc([N+](=O)[O-])c(Br)n1CC(=O)c1ccc(Cl)cc1	inconclusive [inhibitor, single point]
CC(C)(C)c1ccc(NC(=S)NCCc2ccccn2)cc1	inconclusive [activator, single point]
CC1=NOC(=O)/C1=C\c1ccc(-c2ccc(Cl)cc2Cl)o1	inconclusive [inhibitor, single point]
CN1CCN(C(=O)c2ccc(CSc3ccc(Cl)cc3)cc2)CC1	inactive
COC(=O)c1c(NC(NC(=O)CC(C)C)C(Cl)(Cl)Cl)sc2c1CCC2 (stereo not given)	inconclusive [inhibitor, single point]
Cc1cc2cc(C(c3nnnn3C(C)(C)C)N(Cc3ccco3)CC3CCCO3)c(=O)[nH]c2cc1C (stereo not given)	inconclusive [inhibitor, partial curve]
COc1ccc2[nH]c(=O)c(CN(CC3CCCO3)C(=O)Nc3ccc(F)cc3)cc2c1 (stereo not given)	inconclusive [inhibitor, single point]
C=C(C)COc1ccc(-c2nc(N)ncc2Oc2ccc(OC)cc2)c(O)c1	inconclusive [inhibitor, single point]
O=C(COC(=O)c1cccs1)Nc1ccc(S(=O)(=O)N2CCOCC2)cc1	inactive
O=c1cc2ncc(-n3cc([N+](=O)[O-])cn3)cn2[nH]1	inactive
COc1cccc(C(C(=O)NC2CCCC2)N(Cc2ccco2)C(=O)c2ccco2)c1OC (stereo not given)	inconclusive [inhibitor, single point]
